“And” between values parts separate entries of the source, which are not always exact repeats. Equal values may be shown once. Among all 420,000 compounds or so, about 64,000 (15%) were called active. The shares of active, inactive and inconclusive entries below differ from those in the screen. Calls follow the shape of the dose curve; as a rule, active = well fitted inhibition curve with a large enough effect; inconclusive = small, poorly fitted or top-dose-only effect; inactive = flat fitted curve, though single readings scatter. A potency beside an inconclusive call is a rough fit, not a confirmed value.
Experiment: qHTS for Inhibitors of human tyrosyl-DNA phosphodiesterase 1 (TDP1): qHTS in cells in absence of CPT; also: nearly all actives have a fitted effect of over 55% in size
Details: DT40 Tdp1-/- hTDP1 cells, no CPT, ATP luminescence, 48 h; activity change, negative = growth inhibition: at 46.2 µM (top of the series)
Method in brief: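 Luminescent ATP content (CellTiter-Glo) served as the growth readout. Knockout chicken DT40 cells expressing human TDP1 were exposed to compounds without camptothecin for a minimum 48 hr at 37 °C.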
% is scaled to controls: 0 for no effect and ±100 for the full control effect; potency is read from the fitted curve at half-maximal effect; tags tell the direction and shape of the fitted curve.

Row | Structure (SMILES) | Potency | activity change, negative = growth inhibition
1 | CCc1ccc(CNC(=O)CCCn2c(=O)c3cccn3c3cccnc32)cc1 | inconclusive: 29.1 µM [inhibitor, single point] | –
2 | CC(C)CCn1c(SCc2ccc(Cl)cc2)nc2c1c(=O)[nH]c(=O)n2C | active: 18.4 µM | –
3 | CCCCc1ccc(-n2nnnc2SCC(=O)Nc2cc(OC)c([N+](=O)[O-])cc2C)cc1 | active: 18.4 µM | –
4 | CCCn1c2ccccc2c2cnn(CC(=O)N3CCN(c4ccccc4F)CC3)c(=O)c21 | inconclusive: 29.1 µM [inhibitor, single point] | –
5 | COc1cc(C(=O)NC2CCCc3ccccc32)cc(OC)c1C (stereo not given) | inconclusive: 7.31 µM [inhibitor, partial curve] | –
6 | CCC1C(=O)NCCN1Cc1ccc2c(c1)CN(Cc1cc(OC)ccc1OC)CCO2 (stereo not given) | inconclusive: 29.1 µM [inhibitor, single point] | –
7 | COC(=O)C1=C(C)NC(C)=C(C(=O)OCC(C)C)C1c1ccccc1[N+](=O)[O-] (stereo not given) | active: 8.41 µM and active: 5.17 µM | –
8 | O=C(CN1C(=O)NC2(CCCCCC2)C1=O)Nc1ccc(Cl)c([N+](=O)[O-])c1 | inconclusive: 1.84 µM [inhibitor, partial curve, poor fit] | –
9 | CN(C)S(=O)(=O)n1cnc(-c2ccccc2)c1-c1ccccc1 | inconclusive: 20.6 µM [inhibitor, partial curve] | –
10 | CC1SC(=NC(=O)c2ccncc2)NC1=O (stereo not given) | inactive | –
11 | Cc1ccc(C)c(NC(=O)N2CCC(CN3CCOCC3)CC2)c1 | inactive | –
12 | CN1CCN(c2ncc3nc(-c4ccccc4)c(=O)n(C4CC4)c3n2)CC1 | inconclusive: 29.1 µM [inhibitor, single point] | –
13 | O=C(NCCNc1ccc([N+](=O)[O-])cc1Cl)c1ccccc1F | inconclusive: 29.1 µM [inhibitor, single point] | –
14 | CC(C)(C)NC(=O)C(c1cccc2ccccc12)n1c(=O)c(-c2cc3ccccc3[nH]2)nc2ccccc21 (stereo not given) | inconclusive: 29.1 µM [inhibitor, single point] | –
15 | O=C(c1ccc(CSc2ccc(Cl)cc2)cc1)N1CCOCC1 | inconclusive: 23.1 µM [inhibitor, single point] | –
16 | Cc1cccc(OC(C)C(=O)OCC(=O)N2CCN(c3ccccc3)CC2)c1 (stereo not given) | inactive | –
17 | Cc1ccc(COC(=O)CCCN=C2NS(=O)(=O)c3ccccc32)cc1 | inconclusive: 18.4 µM [inhibitor, single point] | –
18 | Cc1ccc(Nc2c(-c3ccc(Cl)cc3)nc3sccn23)c(C)c1 | inconclusive: 16.4 µM [inhibitor, single point] | –
19 | CCOC(=O)N1CCN(C(=O)CSCC(=O)Nc2nc(-c3ccc4c(c3)OCO4)cs2)CC1 | active: 20.6 µM | –
20 | CC(C)Oc1cccc(C(=O)Nc2ccc3oc(-c4cccc(Cl)c4)nc3c2)c1 | active: 16.4 µM | –
21 | COc1cccc(OC)c1C(=O)NCCOc1cc(C)cc(C)c1 | inconclusive: 23.1 µM [inhibitor, single point] | –
22 | O=C(Nc1ccc(C(O)c2ccccc2)cc1)[C@@H]1O[C@H](CO)[C@H](O)[C@H](O)[C@H]1O (stereo not given in full) | inactive | –
23 | Cc1ccccc1CC1(CO)CCCN(C(=O)Cc2c(F)ccc(F)c2F)C1 (stereo not given) | inconclusive: 29.1 µM [inhibitor, single point] | –
24 | CCOc1ccc(CNC(=O)c2ccc3nc(CC)c(CC)nc3c2)cc1 | active: 18.4 µM | –

Row | Structure (SMILES) | Potency | activity change, negative = growth inhibition
25 | CCOc1ccccc1NC(=O)CN(c1ccc(C)cc1)S(=O)(=O)c1c(C)noc1C | inconclusive: 29.1 µM [inhibitor, single point] | –
26 | Cc1cc(/C=C2\SC(=S)N(C)C2=O)c(C)n1-c1ccccc1O | active: 8.2 µM | –
27 | O=C(NC1CCN(Cc2ccccc2)CC1)c1cccc(S(=O)(=O)Nc2ccc(Br)cc2)c1 | inconclusive: 16.4 µM [inhibitor, single point] | –
28 | Cc1cc(C)n(-c2nc3ccccc3nc2Nc2ccc(Cl)cc2Cl)n1 | inactive | –
29 | CCC(C)c1ccccc1OCCCNC1CCCC1 (stereo not given) | active: 18.4 µM | –
30 | Cc1ccc(S(=O)(=O)N2CCC(C(=O)NCCCn3ccnc3)CC2)cc1 | inconclusive: 29.1 µM [inhibitor, single point] | –
31 | CCn1c(=O)c2cc(C(=O)NCCCOC)sc2c2ccccc21 | active: 10.3 µM | –
32 | COc1ccc(NC(=S)N(CCN(C)C)C(C)c2ccco2)cc1Cl (stereo not given) | active: 16.4 µM | –
33 | O=C(Cc1ccc(Cl)cc1)NNS(=O)(=O)c1ccc([N+](=O)[O-])cc1 | inconclusive: 6.51 µM [inhibitor, single point] | –
34 | CC1CCN(c2ccc(NC(=S)NC(=O)c3ccc(-c4cccc([N+](=O)[O-])c4)o3)cc2)CC1 | active: 10 µM | –
35 | Cc1ccc(S(=O)(=O)N2C[C@H]3[C@H]4C(=O)N(Cc5ccccc5)C(=O)[C@H]4CC(=O)[C@H]3[C@@H]2c2cccc3ccccc23)cc1 | inconclusive: 6.51 µM [inhibitor, partial curve] | –
36 | O=C(/C=C/c1cccc(Cl)c1)Nc1ccncc1 | inconclusive: 23.1 µM [inhibitor, single point] | –
37 | CCCCCn1c(CN2CCN(C(=O)c3ccco3)CC2)nc2c1c(=O)n(C)c(=O)n2C | inconclusive: 29.1 µM [inhibitor, single point] | –
38 | CC(C)C(NC(=O)OCc1ccccc1)C(=O)OCC(=O)N1C(C)CCCC1C (stereo not given) | inconclusive: 29.1 µM [inhibitor, single point] | –
39 | CCCCC(CC(O)COCCC)c1n[nH]c(=S)n1-c1ccccc1 (stereo not given) | inactive | –
40 | CC(=O)N1CCCc2cc(S(=O)(=O)NCc3cccc(C)c3)ccc21 | active: 20.6 µM | –
41 | O=C1CCCCN1CC(=O)N1CCCC(Nc2ccc(F)c(F)c2)C1 (stereo not given) | inconclusive: 16.4 µM [inhibitor, single point] | –
42 | CC(=O)NCc1ccc(-c2csc(-c3cccs3)n2)cc1 | inconclusive: 20.6 µM [inhibitor, single point] | –
43 | COc1ccccc1CN1CCNC(=O)C1CC(=O)NCCCN1CCCC1=O (stereo not given) | inactive | –
44 | CC(Sc1nnc(-c2ccccc2F)o1)C(=O)Nc1ccc(N2CCOCC2)cc1 (stereo not given) | inactive | –
45 | COc1ccc(CNC(=O)CCC2N=C3c4ccccc4N=C(SCc4cccc(F)c4)N3C2=O)cc1 (stereo not given) | inconclusive: 29.1 µM [inhibitor, single point] | –
46 | CN[C@H]1C[C@H]2c3cc(Oc4ccccc4C)ccc3CCN2C(=O)[C@H]1[C@H](C)O | inconclusive: 16.4 µM [inhibitor, single point] | –
47 | CCOC(=O)c1ccccc1NS(=O)(=O)c1cnn(CC)c1C | inactive | –
48 | Cc1cc(Br)ccc1OCCCCN1CCC(C)CC1 | inconclusive: 29.1 µM [inhibitor, single point] | –

Row | Structure (SMILES) | Potency | activity change, negative = growth inhibition
49 | CCC(c1nnnn1CCOC)N1CCN(c2cccc(C(F)(F)F)c2)CC1 (stereo not given) | inconclusive: 23.1 µM [inhibitor, single point] | –
50 | CO/N=C(\CS(=O)(=O)Cc1ccc(OC)cc1)c1ccc(Cl)cc1 | – | inconclusive: -35% [inhibitor]
51 | O=C(Cc1ccc(S(=O)(=O)N2CCCCC2)cc1)NCc1ccc(Cl)cc1 | inactive | –
52 | O=C(COC(=O)c1cc[n+]([O-])cc1)Nc1c(Cl)cccc1C(F)(F)F | inactive | –
53 | Cc1cc(Nc2cccc(Cl)c2)c2ccccc2n1 | active: 23.1 µM | –
54 | CN1CCN(C(=O)/C(=C/c2ccc([N+](=O)[O-])cc2)NC(=O)c2ccccc2)CC1 | inactive | –
55 | COc1ccc(N2C(=O)c3ccccc3NC2c2ccc(OC)c(COc3ccccn3)c2)cc1 (stereo not given) | inactive and inconclusive: 35.5 µM [inhibitor, single point] | –
56 | CC(=O)c1ccccc1OCC(O)CN1CCN(c2ccccn2)CC1 (stereo not given) | inactive | –
57 | CCCCN(CCCC)CC(O)Cn1c2ccccc2c(=O)c2ccccc21 (stereo not given) | inconclusive: 29.1 µM [inhibitor, single point] | –
58 | CCCCSC1=C(C#N)C(c2ccccc2C)C(C(=O)OCC)C(=O)N1 (stereo not given) | inactive | –
59 | Nc1ncnc(Sc2ncccn2)c1[N+](=O)[O-] | active: 1.3 µM | –
60 | O=C(CN1C(=O)c2ccccc2C1=O)Nc1ccc(S(=O)(=O)N2CCOCC2)cc1 | inactive | –
61 | COc1ccc(CCC(=O)Nc2cc(Cl)ccc2N2CCN(C)CC2)cc1 | inconclusive: 29.1 µM [inhibitor, single point] | –
62 | COc1cccc(CN2C(=O)NC(C)(C3CCN(Cc4cc(Cl)ccc4O)CC3)C2=O)c1OC (stereo not given) | inconclusive: 25.9 µM [inhibitor, single point] | –
63 | O=C(COc1ccc(C(=O)Nc2ccc(Cl)cc2)cc1)NCc1ccccc1 | inconclusive: 1.16 µM [inhibitor, full curve, poor fit] | –
64 | CN1OC[C@@H]2CN[C@H](c3ccc(-c4cc5ccccc5o4)cc3)C[C@@H]21 | active: 23.1 µM | –
65 | COc1ccc(NC(=O)C2Cc3c(-c4ccccc4Oc4ccccc4)ccnc3O2)cc1OC (stereo not given) | active: 16.4 µM | –
66 | C=CCc1cccc(CNc2nc3ccccc3n2CCC)c1O | active: 23.1 µM | –
67 | CCCCCOC(=O)c1ccc(NC(=O)c2ccco2)cc1 | inconclusive: 18.4 µM [inhibitor, partial curve, poor fit] | –
68 | COc1cc(S(=O)(=O)N(Cc2cccnc2)Cc2cccc(OC)c2OC)ccc1-n1cnnn1 | inconclusive: 18.4 µM [inhibitor, single point] | –
69 | Cc1cc(C(=O)N2CCN(c3ccc([N+](=O)[O-])cc3)CC2)c(C)o1 | inconclusive: 18.4 µM [inhibitor, partial curve] | –
70 | COCCn1c(SCC(=O)Nc2cccc(NC(C)=O)c2)nc2c([nH]c3ccccc32)c1=O | active: 3.26 µM | –

— PubChem BioAssay AID686978 (National Center for Advancing Translational Sciences (NCATS), 2013)
